# Results taken from the BET-seq Pho4 binding data (Le et al. 2018).
# Some of the results follow. The energies were worked out here from pooled read counts, against the library average; single values are noisy.
# Molecular target: T1, Pho4 (S. cerevisiae) (UniProt P07270)
# T1 sequence: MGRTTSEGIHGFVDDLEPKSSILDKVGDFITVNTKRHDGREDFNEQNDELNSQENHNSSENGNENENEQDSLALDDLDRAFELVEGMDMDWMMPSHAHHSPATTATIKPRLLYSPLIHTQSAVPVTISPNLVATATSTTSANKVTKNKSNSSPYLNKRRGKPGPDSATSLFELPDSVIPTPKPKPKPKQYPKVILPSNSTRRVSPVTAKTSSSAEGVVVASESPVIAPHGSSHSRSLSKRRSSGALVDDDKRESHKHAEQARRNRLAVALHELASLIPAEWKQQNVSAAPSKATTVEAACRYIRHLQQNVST
# Experiment: relative binding free energy (BET-seq); higher = weaker binding
# Settings: reference: library average
row,Sequence,relative binding free energy [kcal/mol]
1,TGGCGCACGTGGGGGC,-0.13
2,TTAGTCACGTGTAGAT,0.3
3,TGAAACACGTGGGATG,-0.14
4,GAAATCACGTGGATGT,0.2
5,TATGTCACGTGCAGGA,0.11
6,CTGTACACGTGTGAGT,0.1
7,TGTTACACGTGACGGT,0.04
8,TTGGTCACGTGACAGT,0.27
9,TAGAGCACGTGAGGTG,0.16
10,GGACGCACGTGTTGGT,-0.14
11,GGGAGCACGTGTTTGC,-0.13
12,TGGTCCACGTGTAGTT,0.12
13,AGCTTCACGTGGGGTG,0.12
14,TATCACACGTGGTAGG,-0.05
15,GAATGCACGTGGCGTG,-0.03
16,GATAACACGTGTTTTA,0.16
17,TTTTGCACGTGTACTG,0.09
18,TCTTTCACGTGTCTAT,0.36
19,TTGTTCACGTGACGCT,0.26
20,GAGGTCACGTGCAGTG,0.18
21,TACAACACGTGGGGGG,-0.14
22,CAGTGCACGTGGGTGA,-0.12
23,GGTTGCACGTGGCGGA,0.01

row,Sequence,relative binding free energy [kcal/mol]
1,TGTTACACGTGCGTCG,0.04
2,TTGGTCACGTGGAGTG,0.13
3,TCTGGCACGTGTCGTG,-0.14
4,TATATCACGTGACAGG,0.39
5,CTGTGCACGTGCTTTT,-0.11
6,TGGATCACGTGTAGGC,0.22
7,GTATTCACGTGTGTTG,0.27
8,AGGTGCACGTGCTATG,-0.26
9,GCACTCACGTGGGGTG,0.02
10,TCGTGCACGTGGTGAG,-0.09
11,AATGGCACGTGTGAAT,-0.01
12,TATAACACGTGGCGAT,0.06
13,TATAGCACGTGGTATA,-0.25
14,CGATTCACGTGGGGTT,0.13
15,ATCGACACGTGGGTAT,-0.05
16,GGGTTCACGTGATTGA,0.52
17,ATTTACACGTGTAAAT,-0.01
18,GAGTCCACGTGGTATT,0.05
19,GATACCACGTGTGGGG,-0.13
20,GGAGACACGTGTGAGG,0.09
21,TTGTTCACGTGGGTCT,0.17
22,GAGGTCACGTGATCTG,0.25
23,TTGTTCACGTGAGGTA,0.54

row,Sequence,relative binding free energy [kcal/mol]
1,TACGGCACGTGGAGTT,0.05
2,CTTTGCACGTGTCTTG,-0.03
3,GGCATCACGTGAGTTT,0.25
4,TGTGCCACGTGGGAGC,-0.18
5,TGGACCACGTGATGTT,0.1
6,AATTTCACGTGAGTTG,0.35
7,TCTGTCACGTGGGACG,0.06
8,GTTCACACGTGATTAT,0.35
9,CGGGTCACGTGATTCT,0.26
10,AAGTGCACGTGTGGCG,0.04
11,GGAGCCACGTGTGTTT,0.16
12,CGGTGCACGTGGCGTT,-0.16
13,GTGTCCACGTGGTTCG,0.11
14,GTGTTCACGTGTACGT,0.4
15,TCGTGCACGTGGGTGG,-0.12
16,ATGTGCACGTGTCTTG,-0.19
17,GTGCTCACGTGTAGTT,0.26
18,GGATTCACGTGTTTTA,0.26
19,AAGTTCACGTGTAGGG,0.3
20,TGGTGCACGTGGTGCG,-0.05
21,ACTGGCACGTGTGAAG,-0.02
22,AGTGGCACGTGGGTAG,-0.29
23,TTGGACACGTGGTCGA,-0.22

row,Sequence,relative binding free energy [kcal/mol]
1,GTGGGCACGTGCGACA,-0.01
2,GAGATCACGTGTAGGG,0.07
3,GACGGCACGTGGGGAG,-0.19
4,TGTTGCACGTGCGTTT,-0.12
5,TAAAGCACGTGGGTGT,-0.18
6,TCTGTCACGTGTTCGT,0.03
7,TTGCGCACGTGGATTG,-0.07
8,GTCGGCACGTGTATGA,0.11
9,ATCGTCACGTGTTAGT,0.01
10,TTTTTCACGTGACGAT,0.35
11,TGGTTCACGTGGTGCC,0.26
12,GCCTGCACGTGGGTGT,-0.28
13,CGAGGCACGTGTAATT,0.11
14,TAAAGCACGTGTGGAG,0
15,GTTCGCACGTGAGTAG,0.32
16,TGTGGCACGTGTTGAA,-0.06
17,GAAGGCACGTGTGCTT,0.03
18,TTGTGCACGTGTCCGG,-0.02
19,AGCGACACGTGTGTGT,-0.12
20,TTTGCCACGTGGCATT,-0.06
21,GCGTGCACGTGATGTT,0.18
22,GGGTCCACGTGGTGAC,0.15
23,AAGGGCACGTGACGTG,0.07

row,Sequence,relative binding free energy [kcal/mol]
1,ATGATCACGTGGTTGA,0.09
2,CGAAGCACGTGGTGGA,0.05
3,TTTGGCACGTGCTCGG,-0.12
4,TAGGGCACGTGATATA,0
5,TTCGGCACGTGAGTAG,0.05
6,TCCGTCACGTGGGTAG,-0.08
7,AGTTACACGTGGACGT,0.09
8,TGAGTCACGTGTGGTA,0.14
9,TGTAGCACGTGGGGCG,-0.25
10,ACTAGCACGTGTGTTG,-0.08
11,ATTGTCACGTGGGTCC,0
12,GGGCCCACGTGAAGGT,0.25
13,AGTTCCACGTGTTGTG,0.08
14,GCGGGCACGTGTTTGA,-0.01
15,AGGAGCACGTGTTTGT,-0.06
16,ATTGGCACGTGCAGGC,-0.12
17,AAATGCACGTGATTGG,0.15
18,GTTCTCACGTGATGCT,0.31
19,CGTTGCACGTGTGTTG,-0.06
20,GTTTTCACGTGTGAGG,0.37
21,GTTCTCACGTGGGGTA,0.11
22,GTAGACACGTGGTTGG,0.02
23,AACGTCACGTGTTTAG,0.22
